Measurements: the supplement of paper PMC3334620
In all, about 33,000 sequences were measured (“E-score (-0.5 to 0.5)”: median about -0.016, highest 2% from about 0.31 on). Some of the results follow.

Molecular target: Cst6 (UniProt P40535)
Test: PBM E-score (8-mer binding enrichment) (E-score (-0.5 to 0.5)); higher = stronger / more preferred TF binding; most listed sequences are background and not binding sites
Settings: protein concentration: 200 nM; construct: GST-DNA-binding domain
In short: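 GST-tagged yeast TFs (full-length or DNA-binding domain) were made by PURExpress in vitro transcription/translation and applied at about 100-200 nM to universal all-10-mer Agilent arrays. The arrays were made double-stranded by primer extension, on fresh or once-stripped slides. Bound protein was detected with fluorescent anti-GST, and scans were normalised with masliner. Each ungapped eight-base word, pooled with its reverse complement, received an E-score (modified Wilcoxon-Mann-Whitney statistic) from the Universal PBM Analysis Suite.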

Sequence	PBM E-score
CTATACAA	0.0119
TAATAATA	0.259
GCGGCGCA	0.197
ATTGGTGC	0.0848
GAACAAGA	0.131
CACAACTG	-0.146
GGCAGCAC	-0.0936
CTTGGAAC	-0.0185
CAGATCCG	-0.018
AAATAGCC	0.0281
GAAGTATA	0.0932
GAGCATGA	0.0252
CCTGCACC	-0.35
CATTATCC	0.0923
CACGGTAC	-0.228
GCGTTCTA	-0.031
AAAGATGG	-0.0227
ATCGTTTC	0.0327
GCAAAGCC	-0.291
AAAACTAG	0.116
CCAGAACA	-0.189
CGGTCTAA	0.00521
CGGGCGTA	-0.294
TCTTGACA	0.053
ACTAAGTG	0.0381

Sequence	PBM E-score
GAGGAGCA	-0.0417
AAAAAGTC	0.087
AACGACAT	0.199
CAACGAGC	0.0273
GTCCAAAA	0.179
AATCGTGC	0.195
AAGGCTGC	-0.132
CTTTCAGA	0.088
TGCAGACA	0.0731
TGAATCCA	0.0707
CTGAACCA	-0.0697
GACCATGA	0.15
CTAGTCGA	-0.192
ACCAGACA	0.0355
CACTCCAG	-0.0557
ACAGCAGC	-0.0573
CAGCTGAG	-0.181
CTATACCA	0.00742
CGAGTCAG	-0.104
GGACGTAC	-0.065
AGTAGTAT	-0.00796
AACTTGAT	0.241
GAAGTAAA	0.0207
CTAGGCGC	0.145
AGTGAGAC	-0.049

Sequence	PBM E-score
TCATGGGA	0.0882
CGCCAATA	0.0635
ACTTACCT	-0.0885
CGACGGCG	0.257
AATGCCTA	-0.0283
ATAAGAAT	0.253
ATACGACA	0.186
ACATTACA	0.177
ACCAGTAA	0.0918
AAAGGCCA	-0.109
AGCAACGC	0.0203
CATAGAGC	-0.0927
AATGCACC	-0.0312
CTGGAAGC	-0.22
AAAGCTAT	0.0617
AATTAACC	0.052
ACCCGGTA	-0.119
TGCTTGAA	0.0953
GAACGCCA	-0.0331
GAGGTTCC	-0.197
CCTCTTGC	-0.138
CTGAGGTC	0.0178
CAAGTGAC	0.241
CTGGGTTA	-0.0327
ACTGACTC	-0.138

Sequence	PBM E-score
GATCCATA	-0.0534
CCACATTA	-0.0598
ACGGAGGA	-0.157
CGCGAGTA	0.0528
AACGACGG	0.0574
CCTCGGGC	-0.228
CATTGTGA	0.0379
CTCCCCCA	-0.29
CCAGGGGC	-0.191
CTCACCTC	0.0122
GATGACAA	0.333
AGGCGCTC	-0.119
GGCCTCAC	-0.0728
AAACTGTG	0.0247
ATCTGCTG	0.0566
ATATGCGA	0.127
GCGAACAC	-0.195
CCTTGCAG	-0.181
TAACTCAA	0.0592
AAACCGGC	-0.111
GCTTGCAC	-0.175
CCTATCAC	-0.145
CGAGACGA	-0.253
GGCGCCCC	0.0324
ATTAGGCA	0.104

Sequence	PBM E-score
AGGAATAT	0.127
TGCTGAAA	0.0851
AGCGCATC	-0.134
CATCGCGG	0.0064
ATGCCATG	0.106
CTGTCTCC	-0.197
ACGCTCCT	-0.0423
TACAGGTA	0.0112
AAATCACT	0.193
CACATTGG	0.0518
ATCAATCA	0.165
CGGCTGAA	-0.0653
ATCTGGAG	-0.173
TAGGTTGA	0.0193
CCGTGTGC	0.0884
GCAAGACC	-0.153
CCTTCGGC	-0.0677
CGCAGCCC	-0.206
GGACAGCC	-0.239
GGCCGACA	-0.194
AGCGGCCG	0.0238
CGGCTTCC	0.0101
AACCCTCA	-0.226
GCGCTAGC	-0.242
ACTGAACT	-0.122

Sequence	PBM E-score
AGGCTGCA	0.0157
GACCTATA	0.189
CAGGTTGC	0.129
CCGGCTAG	-0.403
GGCCACCC	-0.184
GGGAGAAA	-0.12
GTGTATTA	0.277
AGTGCACT	-0.0719
GCCACGCA	-0.108
AAGTGTGA	0.14
ATCTGGAA	0.184
CCGTACAC	-0.0178
CAAGGGGG	-0.278
ATAGTAAT	0.273
AGACCAGG	-0.223
AGTTACAA	0.182
CGTCCTAC	-0.16
TCCTTACA	0.0285
GAACATCC	0.101
CCCATACC	0.00425
AACTAGAT	0.0586
GACGGCGC	0.271
AGCGCAAA	0.0469
GTGCTAGA	-0.12
GGAAAAAC	0.143

Sequence	PBM E-score
GGCATTCA	0.0485
GCAGTGAC	0.17
CACGCGTA	0.0842
AATGCTGC	0.0499
CTGTACCA	-0.19
ATGACGTG	0.491
ACGAAGCC	-0.0878
GACCACGA	-0.115
TCTATGCA	-0.0471
ACACTAAG	-0.00502
AACCAATT	0.129
AAGCTAGT	-0.0293
CTTTGAAA	0.0339
TCAGTCCA	-0.209
GCTGTCCA	-0.0895
ATCAATAA	0.225
CGCTGCGC	-0.228
AAGTCGAA	-0.13
CGTCAAAC	0.126
AACCGCTA	-0.0625
AAAGATCT	-0.0274
TACTTATA	-0.0584
CATGTCGA	-0.0991
TAATTTGA	0.118
AAACCTTT	-0.0284

Sequence	PBM E-score
ATACGTTG	0.0931
CGCATCAC	0.183
ATCTCGCC	-0.111
TCCGGCCA	-0.271
TATAGCCA	-0.00222
CGGCGGCA	0.0574
CGGCAGTC	0.0637
CCAGTTCC	-0.194
ATAGCAAC	0.0205
AAGAGGGA	-0.27
CGACGCAA	-0.0619
TCGCCGCA	0.135
AGAGACGG	-0.0701
AGGTGTGA	0.00921
AGTCTGTC	-0.1
ACTAGTGG	-0.136
CAGGGCGG	-0.26
AACAACGA	0.0938
GCGGTCAC	0.0311
AGGTCACA	-0.0345
AATGACAA	0.267
TAGGCGAA	-0.0395
AGGACCTA	-0.131
CGCAGGCG	-0.0934
ACGAGACC	-0.15

Sequence	PBM E-score
AGCGATAG	-0.235
CCATGTTA	0.0103
CCTCGTAA	0.0951
AACTTCTA	-0.00743
TAATACCA	0.182
AGCGTCGG	-0.0566
ACAGAGAG	-0.234
CCAGTTTA	-0.0927
CCCCATTC	-0.0994
GAAACTGC	-0.152
CGAGTTCC	-0.035
TAATCATA	0.243
ATGCCACA	0.179
GGAGGTAC	-0.267
AGGAGCGG	-0.207
AAGGCCAC	-0.181
CCACCAGC	-0.0867
GCCGGGAC	-0.33
GACGCCGA	0.176
AGGGTGCG	-0.16
CGGGTCCA	-0.413
CCGCGCGG	0.382
ACAATACA	-0.00055
ACCAATAC	0.0422
TTAACAAA	0.161

Sequence	PBM E-score
CGATACAA	0.103
AGAGAGCA	-0.229
CACAAATA	0.252
GCGTCGCA	-0.0671
TCCCGCGA	-0.182
ACTTATGC	0.0183
GAGATATC	-0.0223
CGCCGTAG	0.268
CAAAACTC	0.0461
GGCGAACC	-0.0942
GCCCGCTA	-0.274
CGAATTAC	0.165
TGATGACA	0.368
AATGACCA	0.0491
CGTGCACA	-0.0622
AGTTCGAC	-0.0147
TCGGAAAA	0.113
GCTCCGCA	-0.164
ATGCATTC	0.0817
CCCTCGAA	-0.284
GCAACTTA	0.055
ACCACTAC	-0.0773
GTGCTAAA	0.0621
CATAGCCG	0.0286
CCAGGGCA	-0.228

Sequence	PBM E-score
CCCAGGAG	-0.331
ACGGGATA	0.0544
AGTACTTA	-0.0277
ATAAGGTC	0.0415
AGCCAACG	0.0194
AGCGAACT	-0.0366
GACATATC	0.184
CAGAACAA	0.256
CCTCGAGC	-0.0484
TATGAATA	0.122
AGTACCTA	0.00893
AGTTAACA	0.0861
GTAAACAC	0.148
CACTTTCA	-0.0229
GCATGACC	-0.0381
GACCGTCA	0.137
AACAGCAT	-0.0295
ATAGGGCA	-0.0627
CCATACCG	-0.00645
CGAGGCTA	-0.173
CAAGTAAC	0.0522
CAACTAAA	0.142
AACGAGTT	-0.148
CCCATTGA	0.0297
GCCATCAC	0.0711

Sequence	PBM E-score
GCACTCTA	-0.0783
ATGTATGA	0.336
AGAATACT	0.203
AACTAGTA	-0.0153
AAGTGTCC	-0.1
CAACCAGA	0.0739
AGCCTTGG	-0.0725
CCCAGAAG	-0.0853
ACGGGTAT	0.198
CAACATCG	0.0506
GGCAACTA	0.00772
ACATAGGG	-0.168
GCTTTACA	0.0567
CGGATCAG	-0.14
GATAAACA	0.0142
CTCGTTAA	-0.0443
AATTCGGA	0.0143
GGCGTCCA	-0.0758
CAACGTTG	0.31
ATCTTTGC	0.209
ACGTTTAA	0.253
GCAAACAA	0.154
AGTCAAAC	-0.0902
CTTCCACA	-0.143
AGGATTAC	0.0751

Sequence	PBM E-score
ATCGCCAC	0.13
CCTAAAAC	-0.128
TACTCATA	0.0871
ATGTTAAG	0.037
ACGAGCTA	-0.046
GAAATCCC	-0.101
GGTCTGGA	-0.228
CTTGATAC	0.15
GAGCACTC	-0.0473
GGACACCA	-0.0762
CAGGCGCC	0.109
GCCATAAC	-0.0859
AAGCGCAC	-0.171
ACGATCAG	0.0769
CTGAGCCA	-0.0491
TGAAAGCA	0.0904
AACATCTC	-0.0459
GCTCCAAC	0.0831
GTAACCTA	0.192
AAACTTTG	0.058
AACGAAAC	0.155
GGCGTCAC	0.431
GGGCCCTA	-0.352
AAAGCTGG	-0.177
GTGTCAAC	0.0573

Sequence	PBM E-score
AGAATTTG	0.00176
ATGCAACA	0.159
CACAGTCG	-0.116
AACCAGGG	-0.149
TATATCCA	0.239
GTAGGAAA	-0.0486
GCTCCGTA	0.0421
ATATATAC	0.281
AGCTCCCG	-0.415
CATTCAAA	0.178
TACCGATA	0.0472
AGGGTTGG	-0.116
CAATTTTA	0.239
AATTGTCT	0.064
GCCTCAGA	0.151
CAACCCCG	-0.231
CGAACTCC	0.0522
AACCCAGC	-0.225
GCCTATAA	-0.0984
